The other results are listed elsewhere or left out.

B1: ENSG00000136451:be:win_2301|3pUTR|ENSG00000136451|bound_else_gene|NA|bound_elsewhere_windowed (ssRNA)
RNA: GGGAGUUCUACAGUCCGACGAUCAAAAAUCUACAAAUUGUGUUUUGCUAAGAAAAGCCUCAACUGACAGAGGAGAAGUCAAGUGUGUGGACAGGCAAGCUCCUAAUAAACAGAGUCCAGUGGGAUUCCUAUUUAGGAGCCAAGCAACAGAGGAUUGAGCAUCA
B2: chr4:68930545:68930765:-|CDS|ENSG00000135220|control|control|control (ssRNA)
RNA: GGGAGUUCUACAGUCCGACGAUCUCCCAUAUUUGGUGAUCAGCUUGAUAACAUAGCUCACAUGAAGGCCAAAGGAGCAGCUGUAGAAAUAAACUUCAAAACUAUGACAAGCGAAGAUUUACUGAGGGCUUUGAGAACAGUCAUCAACAGAGGAUUGAGCAUCA
B3: chr14:103503186:103503248:+|CDS_3pUTR|ENSG00000075413|msi1_unk|total|mutant (ssRNA)
RNA: GGGAGUUCUACAGUCCGACGAUCUGCUUCCAAAAUUGCCAAUGAGCUAAAGCUGUAACCCAGUGAUUAUGAUGUAAAUUAAGCCGCAAUUAAAGUGUUUUCCUGAACACUGAUGGAAAUGUACCGAAUAAUAUUCCGGCAAUACAACAGAGGAUUGAGCAUCA
B4: ENSG00000107863:be:win_3651|CDS|ENSG00000107863|bound_else_gene|NA|bound_elsewhere_windowed (ssRNA)
RNA: GGGAGUUCUACAGUCCGACGAUCUGUGAUAAGCAGUUUACUAAAAUCCUUCUUCAGAAAACUCCCUGAGCCUCUCUUCACAAAUGAUAAAUAUGCUGAUUUUAUUGAAGCCAAUCGUAAAGAAGAUCCUCUAGAUCGUCUGAACAACAGAGGAUUGAGCAUCA
B5: chr6:32292983:32294035:-|CDS|ENSG00000204296|control|control|control (ssRNA)
RNA: GGGAGUUCUACAGUCCGACGAUCACAGGAAGCCCAGGUAGAGAAGAGUGAGUUGAAGGUACCAAAAGGACAAGAAGGCCAAGUAGAGAAGACUGAGGCAGAUGUGCCAAAGGAACAAGAGGUCCAAGAAAAGAAGAGUGAGGCCAACAGAGGAUUGAGCAUCA
B6: chr5:103029089:103029184:+|3pUTR|ENSG00000145730|msi1_unk|total|mutant (ssRNA)
RNA: GGGAGUUCUACAGUCCGACGAUCAACCAAGCUUUGAUUCCGAUUGAGUAAGAUUUACCCAGAAUGUCAGAUUCCUUUCCCUUCCGCACGUUUAAAGUUCUGUGUAUUUAAUUGUAAACUGUACCCGUCUGUGUGGGACUGUACCAACAGAGGAUUGAGCAUCA
B7: chr1:35420597:35420698:+|3pUTR|ENSG00000146463|msi1|total|mutant (ssRNA)
RNA: GGGAGUUCUACAGUCCGACGAUCGUUCCUCUUAUUUUGUCUUUUGCACCAGUUUCUGGAGGCCCUUGUCAUUUCAAAAAGGACCGUCUCUUUUCUUACUCUGGCAAACCUGUGAGUGAUUCCACAAAGAUACAGUAUUACUUACAACAGAGGAUUGAGCAUCA
B8: chr19:48970371:48970709:-|CDS|ENSG00000104812|control|control|control (ssRNA)
RNA: GGGAGUUCUACAGUCCGACGAUCCUAGGCCGGGUAGGACCCCCACUUUCCUAUCCUCUCCUGGCAAAUCAGCAGCUCCUGGCUAGGGGUCUUUGGUGCAGGGUGCAGGGUCUCAUCCUACUUGUAACAGUUGCUGUCCCUUUACAACAGAGGAUUGAGCAUCA
B9: chr18:70325936:70326038:+|CDS|ENSG00000170677|unk|total|mutant (ssRNA)
RNA: GGGAGUUCUACAGUCCGACGAUCAGCUUUCGCUCCCAUGGUAAAACACUUCACACCCGAAUUGAGCACUCAAAUGGCCGGUUCCGCUUUUAUGAACAGCCAGAUGUGGAAGGACAUACGUCCACCGUUGAUCUAAUUGAGCAUCAACAGAGGAUUGAGCAUCA
B10: chrX:74591538:74591767:-|CDS|ENSG00000131263|unk|FALSE|bound_elsewhere (ssRNA)
RNA: GGGAGUUCUACAGUCCGACGAUCUUGCCCUUCCUUAGCCUGGCUCAGUUUUUCCUCUUAAAUGAGGAUGAUGAUGACCAACCUAGAGGACUCACCAAAGAACAGAUUGACAACUUGGCAAUGAGAAGUUUUGGUGAAAAUGAUCAACAGAGGAUUGAGCAUCA
B11: chr6:44253573:44253761:+|CDS_3pUTR|ENSG00000096384|msi1_unk|total|mutant (ssRNA)
RNA: GGGAGUUCUACAGUCCGACGAUCUCGCAUGGAAGAAGUCGAUCCGGUCCGGAGUUCACCGUUGGAAAACUUGUGCCCUUGUACCGUGUCCCCAUGGGCUCCCACUGCAGCCUCGAGUGCCCCUGUCCCACCUGGCUCCCCCUGCAACAGAGGAUUGAGCAUCA
B12: chr15:48879495:48879609:+|3pUTR|ENSG00000255302|msi1|FALSE|bound_elsewhere (ssRNA)
RNA: GGGAGUUCUACAGUCCGACGAUCGACACUAAAUGUGUGUGAAUGUACAAAGAAAACAAACCAUUGCUUAUGCUGUUAUAUACUAGAGAAAUUUUGUUUUGCUUGCUGUUUUAACUUGACAGAUGAAGGACUUUAGUUGAACUUCAACAGAGGAUUGAGCAUCA
B13: ENSG00000070961:be:win_6451|3pUTR|ENSG00000070961|bound_else_gene|NA|bound_elsewhere_windowed (ssRNA)
RNA: GGGAGUUCUACAGUCCGACGAUCUAAGCCAACUGAGAUACCGUGAUGGUGUUGAUUUCUUUCAAUGAUGCUUACCAUCUAUUUUAGCCACUGAGCCUUUUAUUAUUUGUCUAUUUGUAAAGUUUAUUUGUCUUAACUCAUUUACAACAGAGGAUUGAGCAUCA
B14: chr11:2944997:2945113:-|3pUTR|ENSG00000205531|unk|FALSE|unique (ssRNA)
RNA: GGGAGUUCUACAGUCCGACGAUCCUGUGUAGAGUAGGGCCCUGUUCUCCUUAGGAUGUUGCUUCUUGAUUUUUUUUUUUUUUUAGGGGUGGGUCAGGGUUGUGACACACCAGCCCAGGUGAGAGCUGCUGCGGGUCACCUCAUCAACAGAGGAUUGAGCAUCA
B15: chr13:19772241:19772543:-|CDS|ENSG00000121390|control|control|control (ssRNA)
RNA: GGGAGUUCUACAGUCCGACGAUCAGUAGAGAAAGCUGUUGUGGUUGUGGAUGAUCGCGGUAGAGCUACAGGAAAAGGUUUUGUAGAGUUUGCAGCAAAACCUCCUGCACGAAAGGCUCUGGAAAGAUGUGGUGAUGGGGCAUUCAACAGAGGAUUGAGCAUCA
B16: chr3:141443649:141443750:+|CDS|ENSG00000177311|unk|FALSE|unique (ssRNA)
RNA: GGGAGUUCUACAGUCCGACGAUCCCUACCAUUGGACAAAAUGGAGGUUCAUUCACAGGUCCAGAACCUUUAUUAUCUGAAAAUAGGAUUGGUGAAUUUUCCAGUACCGGAAGUACUUUGCCAGACACGGACCACAUGGUUAAACAACAGAGGAUUGAGCAUCA
B17: chr11:64204363:64204470:+|3pUTR|ENSG00000168439|unk|FALSE|unique (ssRNA)
RNA: GGGAGUUCUACAGUCCGACGAUCGCCCUCGAGUUCCAUGUCUCUUUCCCCUGCCCCUAGUUGCUGUCUCGGCUGCUCUCCCAUAGUUGGUUUUUUUUUUAUUUGGGGCAGUGGGCAUGUUAUGGGGAGGGGAGGGGGUUCUUCCAACAGAGGAUUGAGCAUCA
B18: chr11:56742830:56743766:-|CDS|ENSG00000172457|control|control|control (ssRNA)
RNA: GGGAGUUCUACAGUCCGACGAUCGACAAAGUAGCUGCUCUGUUCUACACCGUGAUCAACCCACUGCUCAACCCUCUCAUCUAUAGCCUGAGAAACAAAGAUAUCAAAGAGGCCUUCAGGAAAGCAACACAGACUAUACAACCACAACAGAGGAUUGAGCAUCA
B19: chr5:181194513:181194614:-|3pUTR|ENSG00000146054|unk|FALSE|unique (ssRNA)
RNA: GGGAGUUCUACAGUCCGACGAUCUCUUUGAGUGACAAGCCCGGGACAACAGCCAGUGGGCAUCACGGCUCUCCAGCACUCCUUAGCCGGAGGAUACAGAGUGAUGGGUGCAUCCUGACCAAUGCGACAACCAACACGUGCUCUCAACAGAGGAUUGAGCAUCA
B20: ENSG00000124766:be:win_2501|3pUTR|ENSG00000124766|bound_else_gene|NA|bound_elsewhere_windowed (ssRNA)
RNA: GGGAGUUCUACAGUCCGACGAUCGUGUUGGAUUAUUUCAAUGGUGGGGUUAAUAUAGCAUGUUAUCCUGUCUAUCUUUUAAAGAUUUCUGUAUAAGACUGUUGAGCAGUUUUUAAAAUAGUGUAGGAUAAUAUAAAAAGCAGACAACAGAGGAUUGAGCAUCA
B21: chr16:2708819:2708933:+|3pUTR|ENSG00000167977|unk|FALSE|unique (ssRNA)
RNA: GGGAGUUCUACAGUCCGACGAUCCUCUCUGGGGAGCUGCUGGCCGCUUAGCGUUGUUUGAUUUUUGACCUUGACAUAGUAGAUAGGCUUGUGGUUUUUUUAAUUUAAAGAUAUUAAGACUUAAUUCACUAAAAUUUAUUCUAACAACAGAGGAUUGAGCAUCA
B22: chr7:20412513:20412614:+|3pUTR|ENSG00000105855|msi1|FALSE|unique (ssRNA)
RNA: GGGAGUUCUACAGUCCGACGAUCUCCUUAAAAAUCCAGAGUUUAUAUUUUUUUUAUACCCUCACUUGUUUGCACUAACUUUAUAGUGGACCAAGGCUGUUACCAUAGGAAGGGACAAACUUCCUUGUAGGCAACUCAGUGUUACAACAGAGGAUUGAGCAUCA

This assay has as its target MSI1 full-length (mouse, UniProt Q61474 1-362). Put plainly: nsRBNS (natural sequence RNA bind-n-seq); RBNS binding buffer (assumed for nsRBNS): 25 mM Tris pH 7.5, 150 mM KCl, 3 mM MgCl2, 0.01% Triton X-100, 500 ug/ml BSA, 20 U/ml SUPERase-In, 4 C; UNK is unkempt and MSI1 is Musashi-1; names of the RNAs are library labels; protein concentration not given here; high values mean tight binding.
Sequence of UniProt Q61474 (Q61474 whole entry): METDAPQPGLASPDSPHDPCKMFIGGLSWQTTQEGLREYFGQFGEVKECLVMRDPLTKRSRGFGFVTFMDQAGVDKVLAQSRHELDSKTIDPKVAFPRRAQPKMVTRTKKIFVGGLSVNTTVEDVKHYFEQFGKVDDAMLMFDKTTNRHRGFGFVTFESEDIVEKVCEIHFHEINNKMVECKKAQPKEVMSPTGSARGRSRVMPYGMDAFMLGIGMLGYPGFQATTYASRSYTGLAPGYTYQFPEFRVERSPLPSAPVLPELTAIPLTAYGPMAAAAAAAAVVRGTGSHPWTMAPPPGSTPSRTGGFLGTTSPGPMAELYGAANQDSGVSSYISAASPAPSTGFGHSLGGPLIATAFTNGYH
In turn, B1 gave a binding signal of 0.431 enrichment R.
In turn, B2 had a binding signal of 0.57 enrichment R.
Under B3 stands 0.329 enrichment R; under B4, 0.44 enrichment R.
Molecule B5 came in with a binding signal of 1.38 enrichment R.
For B6, the binding signal worked out at 0.488 enrichment R.
B7 returned a binding signal of 0.515 enrichment R.
B8 showed a binding signal of 0.678 enrichment R.
In turn, B9 showed a binding signal of 0.315 enrichment R.
Molecule B10 displayed a binding signal of 0.258 enrichment R.
Under B11 stands 0.475 enrichment R; under B12, 1.09 enrichment R.
Under B13 stands 6.17 enrichment R; under B14, 2.84 enrichment R.
In turn, B15 returned a binding signal of 0.715 enrichment R.
B16 came in with a binding signal of 0.302 enrichment R.
The molecule B17 yielded a binding signal of 3.14 enrichment R.
On to B18, for which the binding signal came to 0.821 enrichment R.
As for B19, the figure is 0.34 enrichment R.
As for B20, the figure is 4.39 enrichment R.
B21 displayed a binding signal of 9.33 enrichment R.
As for B22, the figure is 0.682 enrichment R.

(Values after paper PMC12136788.)
